The other results are listed elsewhere or left out. The main result of the screen is listed elsewhere. These columns were measured beside it and carry no call. Compounds called inactive in the main read-out are mostly missing here.

By inhibition is commonly meant the change of the read-out against control, counted positive when it falls.

The assay can be described thus: growth inhibition of WT strain, primary screen, mitochondrial fusion inhibitor project, WT and mutant strains, chemical genetic (AID 1362). Further: tested in S. cerevisiae. To be noted: mitochondrial fusion phenotypic screen, at 10 µM.
Turning to `O=C1C=C(Nc2ccccc2)C(=O)c2ccccc21`, the inhibition amounted to 50.5%.
Take `O=C(CCn1nnc2ccccc21)Nc1nnc(Cc2ccccc2)s1`: the inhibition is 0.2%.
Consider `Cc1ccc(OCC(=O)Nc2ccccc2N2CCCC2)c(C)c1`, for which the inhibition was 17.2%.
On to `Cc1cccn2c(=O)c(/C=C(\C#N)S(=O)(=O)c3ccccc3)c(Oc3ccc(Cl)cc3)nc12`, for which the inhibition was 22.3%.
Take `O=C(c1ccccc1)c1nnc(-c2ccncc2)o1`: the inhibition came to 15%.
With `CC(C)Cc1nc(N2CCN(C(=O)c3ccccc3)CC2)c(C#N)c2c1CCC2`, the inhibition is -10.1%.
As for `COc1ccccc1N1CCN(C(=O)c2oc3ccc(Br)cc3c2C)CC1`, the inhibition worked out at 32.6%.
Regarding `COc1ccc(C(=O)N/N=C(\c2ccccc2)c2ccccn2)cc1`, the inhibition was determined as 60.8%.
As for `S=C(NCCc1ccccc1)N/N=C/C1CCCCC1`, the inhibition amounted to 66.8%.
Take `COc1cc(OC)c(-c2c3cc(O)c(=O)cc-3oc3cc(O)c(O)cc23)cc1OC`: the inhibition came to 57.7%.
`COC(=O)c1ccc(Oc2cc(C)nc(-n3nc(C)cc3C)n2)cc1`: the inhibition is 60.8%.
As for `Cc1ccc2sc(NNC(=O)C3COc4ccccc4O3)nc2c1C` (centres undefined), the figure is 65.2%; as for `Cc1cc(N2CCN(C(c3ccccc3)c3ccc(Cl)cc3)CC2)n2ncnc2n1` (centres undefined), 43%.
The figure for `CC(/C=N/n1c(COc2ccccc2)n[nH]c1=S)=C\c1ccccc1` is 65.2%.
`Cc1cc(C)n(-c2nc(NCCC(C)C)c3c4c(sc3n2)COC(C)(C)C4)n1`: the inhibition came out at 52.9%.
For the compound `Cc1nc(-c2cccc(NS(=O)(=O)c3ccc4ccccc4c3)c2)cs1`, the inhibition turned out to be 30.3%.
As for `Cc1cccc(C)c1NC(=S)NCCSc1ccc(Cl)cc1`, the inhibition amounted to 65.4%.
On to `CC(C)OC(=O)C(C(=O)C(F)(F)F)c1cc(NS(=O)(=O)c2ccc3ccccc3c2)c2ccccc2c1O` (centres undefined), for which the inhibition was found to be 0.67%.
On to `CCC(NC(=O)c1ccccc1NC(=O)c1ccccc1)C(=O)OC` (centres undefined), for which the inhibition stood at 74.8%.
Consider `CCOc1ccc(C(=O)C(CCC(CN(C)C)C(=O)c2ccc(OCC)cc2)CN(C)C)cc1` (centres undefined), for which the inhibition was determined as 12.6%.
For `Clc1ccc(OCCn2cnc3ccccc32)c(Cl)c1`, the inhibition is 56.4%.
The figure for `CC(=O)NC1C(c2nc3ccccc3s2)=C(c2ccccc2)C(=O)N1c1ccc(C)cc1` (centres undefined) is 18.9%.
The figure for `Cc1ccc(-c2ncccc2OC(=O)C23CC4CC(CC(C4)C2)C3)cc1` is 8.82%.
In the case of `Cc1cccc(NC(=S)N/N=C(\c2ccccc2)C(C)C)c1`, the inhibition is 67.8%.
`COc1cnc(-c2ccccn2)nc1Oc1ccccc1Cl`: the inhibition amounted to 48%.
For `CCCCCCn1c(N2CCN(c3ccccc3)CC2)nc2c1c(=O)n(C)c(=O)n2C`, the inhibition is 8.19%.
Consider `O=C(Cc1cccs1)N1CCN(c2nc(-c3ccc(Cl)cc3)cs2)CC1`, for which the inhibition was 48.9%.
As for `CCOC(=O)c1sc(NC(=O)Nc2ccc(Cl)cc2)cc1C`, the figure is 41.2%; as for `CCC(C)c1ccccc1NC(=O)COC(=O)c1ccc2[nH]c3c(c2c1)CCCC3` (centres undefined), 9.25%; as for `Cc1ccc(Cc2c[nH]c(=S)s2)cc1`, 58.2%.
With `Cc1ccc(N=Cc2c(O)n(-c3ccc4c(c3)OCO4)c(=O)c3ccccc23)cc1`, the inhibition was found to be 6.72%.
As to `COc1ccc(CCNC(=S)Nc2cc(C)cc(C)c2)cc1`, the inhibition turned out to be 12.1%.
With `O=C1C2C3C=CC(CO)(O3)C2C(=O)N1c1ccccc1-c1ccccc1` (centres undefined), the inhibition is 54.3%.
Regarding `Cc1ccc(C(=O)c2cc(C)sc2NC(=O)CN2CCN(C(=O)c3ccco3)CC2)cc1`, the inhibition amounted to 46.4%.
`CCCCNC(=S)N(C)/N=C/c1ccc2c(c1)OCO2`: the inhibition turned out to be 28.1%.
For the compound `CCN1C/C(=C/c2cccc([N+](=O)[O-])c2)C(=O)/C(=C/c2cccc([N+](=O)[O-])c2)C1`, the inhibition stood at 59.9%.
Regarding `COc1ccc(C2C3=C(CC(C)(C)CC3=O)Oc3ncn(Cc4ccccc4)c(=N)c32)cc1` (centres undefined), the inhibition was -34.6%.
Turning to `Nc1nc(-c2cccc(Br)c2)cs1`, the inhibition was determined as 40%.
For the compound `COc1ccc(-c2nnc(SCc3nnc(-c4ccc(Cl)cc4)o3)n2-c2ccccc2)cc1`, the inhibition stood at 22.3%.
As for `COCCCNC(=O)CS(=O)(=O)Cc1nc(-c2cccc(OC)c2)oc1C`, the inhibition was -0.39%.
On to `Cc1c(Cl)cccc1NC(=O)c1cc(-c2ccccc2O)n[nH]1`, for which the inhibition was 27.9%.
The figure for `CC(C)(C)Nc1nc(SCc2ccccc2)nc(N2CCOCC2)n1` is 15.2%; for `Cc1cccc(-c2ncc(CN3CCCC(CO)(Cc4cccc(Cl)c4)C3)cn2)c1` (centres undefined) it is 17.1%; for `CCOC(=O)C1(CCCc2ccccc2)CCN(Cc2nccn2CC)CC1` it is 31.4%.
Consider `Clc1ccc(OCCn2c(-c3ccco3)nc3ccccc32)cc1`, for which the inhibition came to 64.2%.
On to `CC(C)c1nc(SCC(=O)Nc2nc3c(s2)CCCC3)c2ccccc2n1`, for which the inhibition came to 44.8%.
As for `CC1CC1C(=O)Nc1nc(-c2cccs2)c(-c2cccs2)s1` (centres undefined), the inhibition is 33.5%.
With `C/C=C(\C)CN1CCN(c2cc(C)ccc2C)CC1`, the inhibition stood at 5.4%.
For the compound `Clc1cccc(Nc2ncnc3ccc(Br)cc23)c1`, the inhibition was found to be 56%.
Regarding `COC(=O)c1ccccc1NC(=O)CNc1cc(Cl)ccc1N1CCOCC1`, the inhibition turned out to be 4.26%.
Turning to `O=C(O)c1cn(-c2ccc(N3CCCC3)c(F)c2)c2c(F)c(F)c(F)cc2c1=O`, the inhibition worked out at 70.7%.
On to `CC(=O)N1N=C(c2ccc(Br)cc2)CC1c1cn(C)c2ccccc12` (centres undefined), for which the inhibition came to 32.1%.
`COc1ccc(OC)c(-c2cc(C(=O)Nc3c(C)nn(Cc4ccccc4)c3C)no2)c1`: the inhibition was 18.7%.
As for `O=[N+]([O-])c1ccccc1S(=O)(=O)NCCC1=CCCCC1`, the inhibition was determined as 6.79%.
The figure for `Cc1cccc(NC(=S)N(Cc2ccco2)C(C)c2cccs2)c1` (centres undefined) is 48.3%; for `c1ccc(-c2csc(N3CCN(c4ccccn4)CC3)n2)cc1` it is 18.8%; for `CC1CCCCC1NC(=O)/C(C#N)=C/c1ccccc1F` (centres undefined) it is 47.2%.
Regarding `O=C(COC(=O)C1COc2ccccc2O1)NC(=O)Nc1ccc2c(c1)OCCO2` (centres undefined), the inhibition was found to be 97.7%.
Take `COc1ccc(S(=O)(=O)N2CCC(C(=O)N3CCCCC3)CC2)cc1OC`: the inhibition is 22.5%.
The figure for `CC(=O)C(=Nc1ccccc1Cl)NNc1ccc(Cl)cc1` is 43.2%.
In the case of `CCNC(=S)N/N=C/c1cc(C)n(-c2ccc(Cl)cc2)c1C`, the inhibition is 61.7%.
The figure for `Cc1cc(C)n(C(=O)/C(C#N)=N/Nc2cc(Cl)cc(Cl)c2)n1` is 85%; for `COc1cc(CNCCc2c[nH]c3ccccc23)ccc1OCc1ccc(F)cc1` it is 82.6%.
The figure for `COc1cccc(NC(=O)Nc2ccc(C(C)(C)C)cc2)c1` is 27.8%; for `COCCCNC(=S)NC1CC2CCCC(C1)N2Cc1ccco1` (centres undefined) it is 97.3%; for `O=C1C=CC(=O)N1CCCCCCN1C(=O)C=CC1=O` it is 82.4%.
`O=C1c2cccc(OCC(=O)N3CCCc4ccccc43)c2CCN1Cc1ccc(F)cc1`: the inhibition was determined as 29.7%.
Consider `Cc1ccc(NC(=O)N2N=C(c3ccc(F)cc3)CC2c2ccc(F)cc2)cc1` (centres undefined), for which the inhibition stood at 64.6%.
Turning to `O=C(Nc1cccc(C(F)(F)F)c1)n1cc(-c2ccccn2)c(N2CCOCC2)n1`, the inhibition amounted to 46.3%.

These data come from PubChem BioAssay AID1362 (SRMLSC, 2008).
